In the supplement of paper PMC11417369:
± gives the standard deviation of the averaged measurements. Some of the results follow.

System: PfAP2-I AP2 domain 3 (GST-tagged)
Experiment: gcPBM binding intensity (ln(normalized median fluorescence intensity)); higher = stronger DNA binding
How it was run: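 In this array assay, P. falciparum DNA-binding domains with a GST tag, expressed in E. coli, were applied for 1 h to primer-extended double-stranded 36-bp intergenic genomic probes and negative controls on an Agilent 4 × 180k array. Bound protein was visualised with Alexa488 anti-GST antibody at 488 nm. Binding intensity is the highest Masliner-normalised natural-log median intensity across replicate spots of either probe orientation.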

Row | Sequence | gcPBM binding intensity (ln)
1 | ATATATATAATATAATGTACGTATAATAATATGAGA [XGTACX_site2282] | 8.1 ± 0.28
2 | TAATAAATAAAATATGCACACAAATATAGGAAACAA [CACACA_site8820] | 8.83 ± 0.67
3 | TAAAAGGTGTATATAATACACACGTGGGATTAGAAT [CACACA_site610] | 8.32 ± 0.94
4 | ATATATATATATATATGTACATAATAATATATATTA [XGTACX_site111] | 9.38 ± 0.41
5 | AAAATATTATAAATTTGTACTTATAAATATTGTATA [XGTACX_site8165] | 7.62 ± 0.3
6 | ATATGTTATATGTAATGTACTTTTGATGTATATATT [XGTACX_site8615] | 7.67 ± 0.59
7 | TATATAAAGCATTGTAGTACTACCAATATTTTTTTT [XGTACX_site3523] | 7.96 ± 0.2
8 | AAAAAATATACATATACACACATATGTATATAGAAT [CACACA_site2170] | 7.51 ± 0.62
9 | AAAATAAACAATGAACAATAAACAATGAACAATGAA [CACACA_negctrl_site1194] | 7.66 ± 0.63
10 | ATATATTATATATATATATATATATATTATTATTGT [TGCATGCA_negctrl_site286] | 8.46 ± 0.24
11 | TATGAATATTTGTATACATGCATATAGAAATCATAT [TGCATGCA_site533] | 7.77 ± 0.57
12 | GCTTTAATCTGAAAGTGTACAGATAATATATTTATA [XGTACX_site2462] | 7.67 ± 0.35
13 | TGCATTATTTACAAGGTGCGTTACAAATGTGTAACA [GTGCAC_site9442] | 11.3 ± 0.88
14 | GATAAATGTATATATGCATGCACATATATTTATACA [TGCATGCA_site748] | 8.46 ± 0.54
15 | TATTTGTAATATTATACACACATTATATATTACAAA [CACACA_site5804] | 7.75 ± 0.59
16 | TATTTTGTATATAAATGTACAAGTATATATTTTTTC [XGTACX_site7855] | 7.49 ± 0.45
17 | CGTAGCCACACTAACACACACAAATATACACAATCA [CACACA_site7379] | 7.84 ± 0.42
18 | ATTTAAATAACGTATGTATATACATATATATATATA [TGCATGCA_negctrl_site207] | 9.21 ± 0.41
19 | AATTAGATTATGCACACACACTTAAAAATAATAAAT [CACACA_site7015] | 10.4 ± 0.62
20 | TTTTTTTTTTTCTTAGTGCGCGTGAAAAATATAAAA | 8.62 ± 0.15
21 | TTACTCAAACAAACAAAAAAAAAAAAAAAAAAAAAA [TGCATGCA_negctrl_site457] | 8.07 ± 1.1
22 | ATATATAGAATGTGTACACACATATGTATTTATATA [CACACA_site810] | 8.02 ± 0.22

Row | Sequence | gcPBM binding intensity (ln)
23 | ATTTTTTATGGACAAAAGACCTCTGATGTAAATATA [CACACA_negctrl_site1081] | 7.72 ± 0.47
24 | TACTATAACGCACATACACACAAAAAAAAAAAAAAA [CACACA_site8073] | 10.6 ± 0.57
25 | TATATATATATTTTTGCATGTAATTTTTATGAGGAC [TGCATGCA_site884] | 9.03 ± 0.092
26 | TTATACATGAAATATTGTACACATATATATATATAT [XGTACX_site4378] | 9.41 ± 0.56
27 | ATATGGTGATATAGGTGTACATTTTGATGCTTATTT [XGTACX_site4283] | 7.96 ± 0.59
28 | ATTCAAATTGTAGAAACACACAAAAACTTAACATAT [CACACA_site2617] | 7.76 ± 0.83
29 | TAGTTAACAAATAATGCACACAAATGGATAAAATTA [CACACA_site9240] | 10.8 ± 0.76
30 | CATATGATATGTTATACACACACGTATATATGAATT [CACACA_site3446] | 8.03 ± 0.21
31 | AAGGGAAAATTAAGGTTGCACTAAAAATATATCTTT [GTGCAC_site9608] | 9.08 ± 0.2
32 | ATGAACATACAATATACACACATATATATTTATATT [CACACA_site4609] | 7.8 ± 0.63
33 | AAGAGAAATTATAACATGTGAAATGTATTATATATA [TGCATGCA_negctrl_site254] | 7.63 ± 0.45
34 | ATTTATATATAATATACACACATATAATCCACATAT [CACACA_site699] | 8.23 ± 0.34
35 | AAAAATAAAAAAATGACACACATATATATATATATA [CACACA_site2307] | 9.56 ± 0.38
36 | TATCTCTTATTTTATTGTACTTAACTATGCTATAAT [XGTACX_site4904] | 7.98 ± 0.49
37 | TAAGTATAATATTGATGTACATATAATAACTTGTAT [XGTACX_site417] | 7.82 ± 0.48
38 | GAATAAATATTAAATGTGCACTTGAATAGATGTAAA | 10.1 ± 0.16
39 | CACGCGCCCGGACACACACACACACCCATATATATA [CACACA_site5251] | 8.61 ± 0.59
40 | TTTTTCATCATATGTTGTACAATGTGTAGATATATT [XGTACX_site3195] | 8.25 ± 0.13
41 | AGATACGATTATATGCGTTCAATATACCAAATAATT [TGCATGCA_negctrl_site501] | 7.65 ± 0.51
42 | CTTTGTGTTAAAAGTAGTACACCAAAAATATGACTT [XGTACX_site622] | 8.2 ± 0.28
43 | TTTTTTCTTTCTTTCAAACACACATTAATTTTATTC [CACACA_site2733] | 7.66 ± 0.56
44 | TTTTTTTTTTTTTGGTGTACTTTTTTTAGAACGCAA [XGTACX_site4207] | 8.21 ± 0.57

Row | Sequence | gcPBM binding intensity (ln)
45 | AAAAATGAAAGGTGTACACATACAAACATAGAAAGA [CACACA_site5020] | 8.54 ± 0.79
46 | AAAATTTATATAGGCACACAAATAAATTAATACATA [CACACA_site1418] | 7.91 ± 0.4
47 | ATATTAGAAATATGAATAGAAAGAATATATAAGTAT [CACACA_negctrl_site682] | 7.96 ± 0.55
48 | ATTCTACACCCACATACACACATATATATATATATA [CACACA_site3426] | 9.43 ± 0.6
49 | TGTTCAAATTTATTCGATCTTTATATTTAATAAAAC [CACACA_negctrl_site781] | 7.37 ± 0.48
50 | AGATACTTTCCTCAAACACACAAAACTATACAACAA [CACACA_site1474] | 7.85 ± 0.45
51 | GTTAGCTCGTTCGGAGCACACACATATATATATATA [CACACA_site8595] | 9.47 ± 0.3
52 | ATTCAGTTCTATAATACACACATATATTGACATTAT [CACACA_site7309] | 8.01 ± 0.52
53 | ATATTCTTCTAAAGGCGTACATCTACATTTATGAAA [XGTACX_site2145] | 8.315 ± 0.021
54 | TTACAACAGAATGGTATTTTTTTATTTTAAAGAAAA [TGCATGCA_negctrl_site230] | 7.34 ± 0.41
55 | ATCCTACTATGTTATACACACAATTACTTTTTTCTC [CACACA_site3712] | 8.27 ± 0.73
56 | ATATGTAAAACTTCAAAAAAATATATTTTATGACGA [GTGCAC_negctrl_site324] | 7.5 ± 0.41
57 | AATATTTATGTGAAGACACACAACTGTTTATTATAT [CACACA_site3447] | 7.68 ± 0.66
58 | TACTACTATCTATATTGTACAAAAGGTGCCTACAAA [XGTACX_site4267] | 9.98 ± 0.3
59 | TATTTCAAAAAAAAAAAAAATAAAAAACAACAACAA [CACACA_negctrl_site893] | 7.79 ± 0.45
60 | AAAAAAAATTATATATGTACTTATTAATCCTTATAT [XGTACX_site1389] | 7.54 ± 0.38
61 | ATTTATATATCGCCCACACACATGTGATTATTTATA [CACACA_site6905] | 8.18 ± 0.62
62 | TCTATTCAAAATAAAAGTACTAGCATGTGAATTGTT [XGTACX_site5530] | 7.87 ± 0.64
63 | TACAAGTTTTTAAAGTGTACCAAAAAAAAAGAATAA [XGTACX_site979] | 8.06 ± 0.34
64 | TTCATTTATTTACTTACACACTTTATATATGTGGTT [CACACA_site4901] | 7.88 ± 0.52
65 | ATATATAAAATATACACACATACTGTTCATTTAAAG [CACACA_site4169] | 7.86 ± 0.51
66 | AATTATATTCTATTCACACATATTCCAACCTCTTTT [CACACA_site4670] | 7.87 ± 0.79

Row | Sequence | gcPBM binding intensity (ln)
67 | TGTATGTTGTAAAATTGTACATATATATTATATTTA [XGTACX_site4883] | 7.53 ± 0.3
68 | ATGAATATAATAAAGAAACACACGTATACATAATGA [CACACA_site1355] | 7.85 ± 0.88
69 | AAAAGATAATTATGCACACACACACCCAGACACAAC [CACACA_site5428] | 10.3 ± 0.47
70 | TTTGATGGTACACGTACACACCTTGCAAATATTTTT [CACACA_site4645] | 8.15 ± 0.61
71 | TGAAAGAACCTGATTACACACATAAATTATATATAT [CACACA_site26] | 7.9 ± 0.83
72 | AGTTCTTCGTACCAAAAAACGGCACGCATATGTATA [TGCATGCA_negctrl_site469] | 8.03 ± 0.75
73 | TGTATTCATACATGCACACGTACATATTTAAATATA [CACACA_site3926] | 8.49 ± 0.23
74 | ATGGAAATATATACATGTACATAAATATATATATAT [XGTACX_site8391] | 9.13 ± 0.5
75 | AGTAGTCTGGAGAAGAGTACATAGTATCTGGTAACC [XGTACX_site2043] | 7.82 ± 0.66
76 | ATGTTTTGCATATATTATATATTTATTTATTTTTTT [CACACA_negctrl_site729] | 7.84 ± 0.73
77 | AGTGGACTTTTTTTTTTTTTTTTTTTTTTTTTATTA [CACACA_negctrl_site547] | 7.96 ± 0.49
78 | TATTTATTGTGATACTTATATTATTTTATGATTAAA [CACACA_negctrl_site901] | 7.48 ± 0.4
79 | AGAGAGATGACAAAAAGATGAATAACGTTAAGGGAT [XGTACX_negctrl_site120] | 8.13 ± 0.91
80 | TGTATATTTTTTATTACACACTTTTTACTTTTTAGA [CACACA_site3069] | 7.87 ± 0.54
81 | TTTTTTAATTGTGATACGTATATTATTTAATGATAA [GTGCAC_negctrl_site704] | 7.74 ± 0.52
82 | ATAAAATATAGATGCACACACATATAGATTTCATAC [CACACA_site7636] | 8.6 ± 0.22
83 | GATATAATTATATTATGGTGTTTTTGATAGATATTT [GTGCAC_negctrl_site313] | 7.51 ± 0.41
84 | AGTATATACACGTGCGTGCACAGATATTCTTTTTTT [GTGCAC_site9398] | 9.61 ± 0.48
85 | TATTTTAAAGAGAAAACATGCATTATATAGAACATT [TGCATGCA_site328] | 7.93 ± 1
86 | ATCAAACCATAAAAGAGTACAAAAGGATGATATTTT [XGTACX_site8883] | 7.88 ± 0.87
87 | ATATATATATATAGTGCACACATATAAAATATATAT [CACACA_site8884] | 11.5 ± 0.15
